Experimental data taken from the supplement of paper PMC3334620.
In all, about 33,000 sequences were measured (“E-score (-0.5 to 0.5)”: median about -0.017, highest 2% from about 0.3 on). This is one part of the list.

The sequences below were run against T1, Sut1 (UniProt P53032) (assay: PBM E-score (8-mer binding enrichment) (E-score (-0.5 to 0.5)); higher = stronger / more preferred TF binding; most listed sequences are background and not binding sites). Details: protein concentration: 200 nM; construct: GST-full length.
T1 sequence: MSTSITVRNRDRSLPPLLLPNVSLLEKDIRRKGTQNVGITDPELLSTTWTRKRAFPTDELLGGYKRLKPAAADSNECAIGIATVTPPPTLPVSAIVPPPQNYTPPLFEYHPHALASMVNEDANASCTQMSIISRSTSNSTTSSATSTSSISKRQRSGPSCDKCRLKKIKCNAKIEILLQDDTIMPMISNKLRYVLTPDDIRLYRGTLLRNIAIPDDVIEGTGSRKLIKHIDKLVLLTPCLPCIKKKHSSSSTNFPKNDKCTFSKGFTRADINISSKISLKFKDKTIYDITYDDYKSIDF
Experimental: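 Universal 'all 10-mer' protein binding microarrays (Agilent AMADID 015681) probed with GST-tagged S. cerevisiae TFs (full-length or DBD) made by in vitro transcription/translation (PURExpress), about 100-200 nM. Bound TF was detected with fluorescent anti-GST. Each ungapped 8-mer (which stands for itself and its reverse complement) is scored by the PBM enrichment score (E-score), a modified Wilcoxon-Mann-Whitney statistic from -0.5 to +0.5, computed with the Universal PBM Analysis Suite. Scale: above 0.35 generally sequence-specific binding.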

| Sequence | PBM E-score |
| --- | --- |
| GCCGAGAC | -0.116 |
| CATATCTC | 0.192 |
| ACGATCAT | 0.0115 |
| CAGACAGA | -0.0988 |
| CATCCCAA | -0.0743 |
| GGTACGAC | -0.26 |
| GGCTACTA | 0.101 |
| CTCGATGC | -0.0993 |
| AACGGGTC | -0.067 |
| AGCAAGAT | 0.015 |
| GACGCGAC | -0.13 |
| GTTTTGTA | 0.215 |
| CTCTTGAC | -0.103 |
| CTCCCTTC | -0.375 |
| CGTACATA | 0.144 |
| TACTTCTA | 0.043 |
| AATACAGA | 0.13 |
| ACGAGAGG | -0.127 |
| AAGCCGAG | 0.0244 |
| ACCCGACT | 0.0579 |
| GCGAATCC | 0.0479 |
| TCTATTCA | 0.138 |
| AGCGGTCA | -0.119 |
| CATTCGGC | -0.0155 |
| GGCTGACA | 0.0001 |

| Sequence | PBM E-score |
| --- | --- |
| ACGGCCTA | -0.0662 |
| AAAGGTGG | 0.0908 |
| TCCGCGCA | 0.26 |
| ACGATTAA | -0.0114 |
| ACTCAGAT | -0.152 |
| ACCTGAGC | -0.17 |
| AGATGGCA | 0.0507 |
| GTATTACA | 0.183 |
| CTGCGCGC | -0.0615 |
| AACTATCA | 0.187 |
| CGGTGCCA | -0.159 |
| AAAGCCCG | 0.208 |
| GTTCAGAA | 0.0324 |
| AATTACCG | 0.171 |
| AACATTCG | 0.107 |
| ACAGACCC | -0.136 |
| TACCTGAA | 0.0944 |
| AACAAGAA | 0.191 |
| AGTGGATG | -0.0759 |
| CAACAGCA | 0.0604 |
| AATCATAG | 0.134 |
| ATATTGAA | 0.21 |
| CAAACGAG | -0.0985 |
| CTCTAATC | 0.0258 |
| CACGAGTC | -0.0666 |

| Sequence | PBM E-score |
| --- | --- |
| GACCGGAC | 0.364 |
| CAGCGGAG | 0.242 |
| ACCTTCGC | -0.0159 |
| GCTGATGA | -0.05 |
| GCCATTCA | 0.0474 |
| AGCTGCGA | -0.115 |
| ATTAAGGA | 0.0804 |
| ATTCTTTG | 0.0841 |
| CTAGTGAA | -0.037 |
| ATCCCCAC | -0.285 |
| ACCCAAAC | 0.0569 |
| ATGTCTTC | -0.153 |
| CCAGGGAC | -0.304 |
| CTTGCGCC | -0.243 |
| CAGGTCCA | -0.231 |
| CCGACTAC | 0.137 |
| ATCGACGA | -0.0527 |
| CACCACTG | -0.159 |
| ACGAAGCG | -0.184 |
| AGTACGTA | -0.0384 |
| CAAAGTGG | -0.229 |
| GACCGACC | -0.076 |
| GTGACCGA | 0.0113 |
| GGTAGACC | -0.101 |
| AGCGCCCT | -0.128 |

| Sequence | PBM E-score |
| --- | --- |
| AAGAGGCC | -0.0799 |
| GTTCGTGA | -0.119 |
| CGCTGTTC | -0.0964 |
| CTGTTTGA | -0.076 |
| GACTTCGC | 0.0243 |
| AGTCCCTG | -0.256 |
| CCCTAGAC | -0.0768 |
| AATGTAGG | -0.0801 |
| AGCTGTGG | -0.332 |
| GCGCGAAA | 0.0601 |
| ACCGAACG | 0.105 |
| GCTCGGAA | 0.165 |
| CCTAAACG | -0.0454 |
| GCTCCCTA | -0.123 |
| GTAAAAAC | 0.0758 |
| AGTTTTAA | 0.341 |
| AGGCTACG | -0.345 |
| ATGGATCA | -0.063 |
| CCTGTGGC | -0.213 |
| AAGCCTGG | -0.0734 |
| CAAATCCC | 0.0494 |
| CATATCCA | -0.22 |
| AACAGGCT | -0.22 |
| CACAAGAC | -0.145 |
| CTGTCCGA | 0.192 |

| Sequence | PBM E-score |
| --- | --- |
| AGCACAGC | -0.0832 |
| AAGAGTAT | 0.0381 |
| AGGCCGAC | -0.244 |
| TTGGCCAA | -0.0764 |
| CAGAACAC | -0.125 |
| GCGCTAGA | -0.00213 |
| TAACTCTA | -0.0161 |
| TCGCTAGA | -0.0604 |
| AAGGTTCA | -0.028 |
| TGGCTTAA | 0.124 |
| AATACCAC | 0.0705 |
| ATTGCCAG | -0.102 |
| AAGTCAGC | 0.0175 |
| AGCACTGC | -0.162 |
| AAATTTTG | 0.143 |
| AATTTCGG | 0.242 |
| ACTGTCCT | 0.0413 |
| GGTACCAC | -0.235 |
| ATTTGGCG | 0.123 |
| AGACTCGA | -0.0746 |
| ATAGTACC | 0.204 |
| CTCGGCTA | -0.0108 |
| CTCTGGAC | -0.0873 |
| GCATAAGA | -0.0114 |
| TTCGCCAA | -0.0854 |

| Sequence | PBM E-score |
| --- | --- |
| CTGGTACC | -0.149 |
| ATGCGGAC | 0.245 |
| CGTCAATA | -0.0833 |
| CATCGGCG | -0.137 |
| ACAGTGAC | 0.0105 |
| GCTTCTCC | -0.111 |
| ATAGCGCG | -0.117 |
| CCGCCACC | -0.0978 |
| ACTCTGCG | 0.0171 |
| ACACTCTG | -0.0727 |
| TAGCCCAA | -0.0663 |
| GTGCACAC | -0.15 |
| CAACAAAC | 0.144 |
| CTAATCCA | -0.173 |
| CAGAACCG | 0.0435 |
| GAACTATC | 0.0613 |
| CGGACCCG | 0.285 |
| CGGGCTTA | 0.0898 |
| ACCTCATC | 0.0345 |
| CGCATTAC | 0.0298 |
| GCTGCACC | -0.316 |
| GAGGCCGC | -0.265 |
| AACTGTAA | 0.192 |
| CCCGGAAC | 0.129 |
| ATCTCATA | 0.0781 |

| Sequence | PBM E-score |
| --- | --- |
| AGAGCTTA | 0.00662 |
| CTACCATC | -0.0533 |
| CGTTCGGC | -0.0654 |
| AAAAGAGC | -0.0423 |
| CGTAACTA | 0.138 |
| ATGTAGGA | -0.00883 |
| ATCGACAT | 0.033 |
| CGGTTTTC | 0.176 |
| AGTATATC | 0.12 |
| GAAGGCGA | -0.0447 |
| ATCATACC | 0.16 |
| GGCTACCC | -0.233 |
| GGATCCGA | 0.146 |
| ATTATCTA | 0.187 |
| ACCCGGAC | 0.323 |
| AAAAAACA | 0.313 |
| GTTATGCA | 0.0236 |
| GACATGTC | 0.0429 |
| CCTGAGAA | -0.115 |
| TCAGTCGA | 0.016 |
| AAGAAACG | 0.127 |
| ATATACTA | 0.305 |
